# Laboratory results published in the supplement of paper PMC8728848.
# The other results are listed elsewhere or left out.
# Tests used:
# Assay in all cases: glycan array binding signal (z-score within array); higher = stronger binding
# Details in all cases: glycan notation: IUPAC condensed, linker removed
# [1] = target: Gal(b1-4)GlcNAc(b1-3)Gal(b1-4)GlcNAc(b1-2)Man(a1-3)[Gal(b1-4)GlcNAc(b1-3)Gal(b1-4)GlcNAc(b1-2)Man(a1-6)]Man(b1-4)GlcNAc(b1-4)[Fuc(a1-6)]GlcNAc
# Procedure, shortened: (§1)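 Negative Z-scores can be read as non-binding. The Z-score is calculated within each array and then averaged across arrays of one protein sequence at different concentrations or buffers and across linkers. Arrays, 3228 in all, were curated from the Consortium for Functional Glycomics database and kept only where the protein sequence was available.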
# [2] = target: Gal(b1-4)GlcNAc(b1-3)Gal(b1-4)GlcNAc(b1-2)[Gal(b1-4)GlcNAc(b1-3)Gal(b1-4)GlcNAc(b1-6)]Man(a1-6)[Gal(b1-4)GlcNAc(b1-3)Gal(b1-4)GlcNAc(b1-2)Man(a1-3)]Man(b1-4)GlcNAc(b1-4)GlcNAc
# Procedure, shortened: as §1
# [3] = target: Gal(b1-4)GlcNAc(b1-3)Gal(b1-4)GlcNAc(b1-2)[Gal(b1-4)GlcNAc(b1-3)Gal(b1-4)GlcNAc(b1-6)]Man(a1-6)[Gal(b1-4)GlcNAc(b1-3)Gal(b1-4)GlcNAc(b1-2)Man(a1-3)]Man(b1-4)GlcNAc(b1-4)[Fuc(a1-6)]GlcNAc
# Procedure, shortened: as §1
# [4] = target: Gal(b1-4)GlcNAc(b1-3)Gal(b1-4)GlcNAc(b1-3)Gal(b1-4)GlcNAc
# Procedure, shortened: as §1
# [5] = target: Gal(b1-4)GlcNAc(b1-3)Gal(b1-4)GlcNAc(b1-3)Gal(b1-4)GlcNAc(b1-2)Man(a1-3)[Gal(b1-4)GlcNAc(b1-3)Gal(b1-4)GlcNAc(b1-3)Gal(b1-4)GlcNAc(b1-2)Man(a1-6)]Man(b1-4)GlcNAc(b1-4)GlcNAc
# Procedure, shortened: as §1
# [6] = target: Gal(b1-4)GlcNAc(b1-3)Gal(b1-4)GlcNAc(b1-3)Gal(b1-4)GlcNAc(b1-2)Man(a1-3)[Gal(b1-4)GlcNAc(b1-3)Gal(b1-4)GlcNAc(b1-3)Gal(b1-4)GlcNAc(b1-2)Man(a1-6)]Man(b1-4)GlcNAc(b1-4)[Fuc(a1-6)]GlcNAc
# Procedure, shortened: as §1
# [7] = target: Gal(b1-4)GlcNAc(b1-3)Gal(b1-4)GlcNAc(b1-3)Gal(b1-4)GlcNAc(b1-2)[Gal(b1-4)GlcNAc(b1-3)Gal(b1-4)GlcNAc(b1-3)Gal(b1-4)GlcNAc(b1-6)]Man(a1-6)[Gal(b1-4)GlcNAc(b1-3)Gal(b1-4)GlcNAc(b1-3)Gal(b1-4)GlcNAc(b1-2)Man(a1-3)]Man(b1-4)GlcNAc(b1-4)[Fuc(a1-6)]GlcNAc
# Procedure, shortened: as §1
# [8] = target: Gal(b1-4)GlcNAc(b1-3)Gal(b1-4)GlcNAc(b1-3)Gal(b1-4)GlcNAc(b1-3)Gal(b1-4)GlcNAc(b1-2)Man(a1-3)[Gal(b1-4)GlcNAc(b1-3)Gal(b1-4)GlcNAc(b1-3)Gal(b1-4)GlcNAc(b1-3)Gal(b1-4)GlcNAc(b1-2)Man(a1-6)]Man(b1-4)GlcNAc(b1-4)GlcNAc
# Procedure, shortened: as §1
# [9] = target: Gal(b1-4)GlcNAc(b1-3)Gal(b1-4)GlcNAc(b1-3)Gal(b1-4)GlcNAc(b1-3)Gal(b1-4)GlcNAc(b1-2)Man(a1-3)[Gal(b1-4)GlcNAc(b1-3)Gal(b1-4)GlcNAc(b1-3)Gal(b1-4)GlcNAc(b1-3)Gal(b1-4)GlcNAc(b1-2)Man(a1-6)]Man(b1-4)GlcNAc(b1-4)[Fuc(a1-6)]GlcNAc
# Procedure, shortened: as §1
# [10] = target: Gal(b1-4)GlcNAc(b1-3)Gal(b1-4)GlcNAc(b1-3)Gal(b1-4)GlcNAc(b1-3)Gal(b1-4)GlcNAc(b1-2)[Gal(b1-4)GlcNAc(b1-3)Gal(b1-4)GlcNAc(b1-3)Gal(b1-4)GlcNAc(b1-3)Gal(b1-4)GlcNAc(b1-6)]Man(a1-6)[Gal(b1-4)GlcNAc(b1-3)Gal(b1-4)GlcNAc(b1-3)Gal(b1-4)GlcNAc(b1-3)Gal(b1-4)GlcNAc(b1-2)Man(a1-3)]Man(b1-4)GlcNAc(b1-4)[Fuc(a1-6)]GlcNAc
# Procedure, shortened: as §1
# [11] = target: Gal(b1-4)GlcNAc(b1-3)Gal(b1-4)GlcNAc(b1-3)Gal(b1-4)GlcNAc(b1-3)Gal(b1-4)GlcNAc(b1-3)Gal(b1-4)GlcNAc(b1-2)Man(a1-3)[Gal(b1-4)GlcNAc(b1-3)Gal(b1-4)GlcNAc(b1-3)Gal(b1-4)GlcNAc(b1-3)Gal(b1-4)GlcNAc(b1-3)Gal(b1-4)GlcNAc(b1-2)Man(a1-6)]Man(b1-4)GlcNAc(b1-4)GlcNAc
# Procedure, shortened: as §1
# [12] = target: Gal(b1-4)GlcNAc(b1-3)Gal(b1-4)GlcNAc(b1-3)Gal(b1-4)GlcNAc(b1-3)Gal(b1-4)GlcNAc(b1-3)Gal(b1-4)GlcNAc(b1-2)Man(a1-3)[Gal(b1-4)GlcNAc(b1-3)Gal(b1-4)GlcNAc(b1-3)Gal(b1-4)GlcNAc(b1-3)Gal(b1-4)GlcNAc(b1-3)Gal(b1-4)GlcNAc(b1-2)Man(a1-6)]Man(b1-4)GlcNAc(b1-4)[Fuc(a1-6)]GlcNAc
# Procedure, shortened: as §1
# [13] = target: Gal(b1-4)GlcNAc(b1-3)Gal(b1-4)GlcNAc(b1-3)Gal(b1-4)GlcNAc(b1-3)Gal(b1-4)GlcNAc(b1-3)Gal(b1-4)GlcNAc(b1-2)[Gal(b1-4)GlcNAc(b1-3)Gal(b1-4)GlcNAc(b1-3)Gal(b1-4)GlcNAc(b1-3)Gal(b1-4)GlcNAc(b1-3)Gal(b1-4)GlcNAc(b1-6)]Man(a1-6)[Gal(b1-4)GlcNAc(b1-3)Gal(b1-4)GlcNAc(b1-3)Gal(b1-4)GlcNAc(b1-3)Gal(b1-4)GlcNAc(b1-3)Gal(b1-4)GlcNAc(b1-2)Man(a1-3)]Man(b1-4)GlcNAc(b1-4)[Fuc(a1-6)]GlcNAc
# Procedure, shortened: as §1
# [14] = target: Gal(b1-4)GlcNAc(b1-3)Gal(b1-4)GlcNAc(b1-3)Gal(b1-4)GlcNAc(b1-3)Gal(b1-4)GlcNAc(b1-3)Gal(b1-4)GlcNAc(b1-3)Gal(b1-4)GlcNAc(b1-2)Man(a1-3)[Gal(b1-4)GlcNAc(b1-3)Gal(b1-4)GlcNAc(b1-3)Gal(b1-4)GlcNAc(b1-3)Gal(b1-4)GlcNAc(b1-3)Gal(b1-4)GlcNAc(b1-3)Gal(b1-4)GlcNAc(b1-2)Man(a1-6)]Man(b1-4)GlcNAc(b1-4)GlcNAc
# Procedure, shortened: as §1
# [15] = target: Gal(b1-4)GlcNAc(b1-3)Gal(b1-4)GlcNAc(b1-3)GalNAc
# Procedure, shortened: as §1
# [16] = target: Gal(b1-4)GlcNAc(b1-3)Gal(b1-4)GlcNAc(b1-3)[Gal(b1-4)GlcNAc(b1-3)Gal(b1-4)GlcNAc(b1-6)]GalNAc
# Procedure, shortened: as §1
# [17] = target: Gal(b1-4)GlcNAc(b1-3)Gal(b1-4)GlcNAc(b1-6)[Gal(b1-3)]GalNAc
# Procedure, shortened: as §1
# [18] = target: Gal(b1-4)GlcNAc(b1-3)Gal(b1-4)[Fuc(a1-3)]GlcNAc(b1-3)Gal(b1-4)[Fuc(a1-3)]GlcNAc
# Procedure, shortened: as §1
# [19] = target: Gal(b1-4)GlcNAc(b1-3)GalNAc
# Procedure, shortened: as §1
# [20] = target: Gal(b1-4)GlcNAc(b1-3)[Fuc(a1-3)GlcNAc(b1-6)]Gal(b1-4)Glc
# Procedure, shortened: as §1
# [21] = target: Gal(b1-4)GlcNAc(b1-3)[Gal(b1-4)GlcNAc(b1-6)]Gal(b1-4)GlcNAc
# Procedure, shortened: as §1
# [22] = target: Gal(b1-4)GlcNAc(b1-3)[GlcNAc(b1-6)]Gal(b1-4)GlcNAc
# Procedure, shortened: as §1
# [23] = target: Gal(b1-4)GlcNAc(b1-6)Gal(b1-4)GlcNAc
# Procedure, shortened: as §1
# [24] = target: Gal(b1-4)GlcNAc(b1-6)GalNAc
# Procedure, shortened: as §1
# [25] = target: Gal(b1-4)GlcNAc(b1-6)[Gal(b1-3)]GalNAc
# Procedure, shortened: as §1
# [26] = target: Gal(b1-4)GlcNAc(b1-6)[Gal(b1-4)GlcNAc(b1-3)]GalNAc
# Procedure, shortened: as §1
# Gal(b1-4)GlcNAc6P = target: Gal(b1-4)GlcNAc6P
# Procedure, shortened: as §1
# Gal(b1-6)Gal = target: Gal(b1-6)Gal
# Procedure, shortened: as §1
# Gal3S(b1-3)GalNAc = target: Gal3S(b1-3)GalNAc
# Procedure, shortened: as §1
# Gal3S(b1-3)GlcNAc = target: Gal3S(b1-3)GlcNAc
# Procedure, shortened: as §1
# [27] = target: Gal3S(b1-3)[Fuc(a1-4)]GlcNAc
# Procedure, shortened: as §1
# Gal3S(b1-4)Glc = target: Gal3S(b1-4)Glc
# Procedure, shortened: as §1
# Gal3S(b1-4)Glc6S = target: Gal3S(b1-4)Glc6S
# Procedure, shortened: as §1
# Gal3S(b1-4)GlcNAc = target: Gal3S(b1-4)GlcNAc
# Procedure, shortened: as §1
# [28] = target: Gal3S(b1-4)[Fuc(a1-3)]Glc6S
# Procedure, shortened: as §1
# [29] = target: Gal3S(b1-4)[Fuc(a1-3)]GlcNAc
# Procedure, shortened: as §1
# [30] = target: Gal3S(b1-4)[Fuc(a1-3)]GlcNAc6S
# Procedure, shortened: as §1
binder,measurement,setting,value
Epa23 (Candida glabrata) (protein) MGSSHHHHHHSSGLVPRGSHMIPNPFEGTINNFPSGCSPNHGLYNRGLTMELYNYSYIHPQSIQSYFNTSTLKKMEKGQCWDPSYLDVNYPRTGYKTHNRFAKVNGIDGILDFEFNPTRSCVPSKGQLPQNYNYPLQFTLSNFTMLLYGYFKPKVTAKHTFTIFADDLLFLNFGAGNAFDCCQQQDTIDDFGNYQAYALWGSDTQQNTLTVNLDANIYYPIRMFYNNRDFKGALNMYFTTDESNTKINDFSGYLFNIPDSSEGCPAHISYETECGNVSG,glycan array binding signal (z-score),[1],1.71
same,glycan array binding signal (z-score),[2],0.915
same,glycan array binding signal (z-score),[3],2.44
same,glycan array binding signal (z-score),[4],0.357
same,glycan array binding signal (z-score),[5],1.31
same,glycan array binding signal (z-score),[6],1.98
same,glycan array binding signal (z-score),[7],3.33
same,glycan array binding signal (z-score),[8],2.62
same,glycan array binding signal (z-score),[9],2.19
same,glycan array binding signal (z-score),[10],3.79
same,glycan array binding signal (z-score),[11],3.01
same,glycan array binding signal (z-score),[12],2.83
same,glycan array binding signal (z-score),[13],4.71
same,glycan array binding signal (z-score),[14],1.82
same,glycan array binding signal (z-score),[15],0.173
same,glycan array binding signal (z-score),[16],0.183
same,glycan array binding signal (z-score),[17],0.162
same,glycan array binding signal (z-score),[18],0.209
same,glycan array binding signal (z-score),[19],-0.012
same,glycan array binding signal (z-score),[20],-0.036
same,glycan array binding signal (z-score),[21],0.015
same,glycan array binding signal (z-score),[22],0.611
same,glycan array binding signal (z-score),[23],1.43
same,glycan array binding signal (z-score),[24],0.008
same,glycan array binding signal (z-score),[25],0.364
same,glycan array binding signal (z-score),[26],0.276
same,glycan array binding signal (z-score),Gal(b1-4)GlcNAc6P,-0.217
same,glycan array binding signal (z-score),Gal(b1-6)Gal,-0.041
same,glycan array binding signal (z-score),Gal3S(b1-3)GalNAc,-0.15
same,glycan array binding signal (z-score),Gal3S(b1-3)GlcNAc,-0.217
same,glycan array binding signal (z-score),[27],-0.217
same,glycan array binding signal (z-score),Gal3S(b1-4)Glc,-0.021
same,glycan array binding signal (z-score),Gal3S(b1-4)Glc6S,-0.201
same,glycan array binding signal (z-score),Gal3S(b1-4)GlcNAc,-0.221
same,glycan array binding signal (z-score),[28],-0.103
same,glycan array binding signal (z-score),[29],-0.19
same,glycan array binding signal (z-score),[30],-0.097
